Laboratory results taken from patent publication US20250101074A1 (Affibody, published 2025).
Read-outs that look alike come from different tables or passages of the source.

Assays:
[1] = target: T1, human IL-17A (human, UniProt Q16552 20-155, limits assumed); assay: cell-based or functional assay
T1 sequence: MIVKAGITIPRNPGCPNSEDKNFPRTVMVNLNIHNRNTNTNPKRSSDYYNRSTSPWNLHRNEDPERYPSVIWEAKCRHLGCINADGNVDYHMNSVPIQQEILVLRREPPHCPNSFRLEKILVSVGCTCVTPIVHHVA

[2] = target: T1, human IL-17A; assay: cell-based or functional assay; remark: listed apart in the source
[3] = target: T1, human IL-17A; assay: ELISA, captured periplasmic Z-ABD, titrated b-hIL-17A
[4] = target: T1, human IL-17A; assay: KinExA, ZAZ in complex with HSA, IL-17A as titrant

B1: His6-Z06282 (designed binder)
chain: MGSSHHHHHHLQVDAKYAKEADQAAMEIATLPNLTWDQWFAFIAKLRDDPSQSSELLSEAKKLNDSQAPKVD
**Q.** Which “IC50, IL-17A induced IL-6 production, NHDF cells, with HSA” value (shortened to “IC50 … with HSA”) [1] does the source give for B1 here?
**A.** 16000 pM

B2: ZAZ3175 (designed binder)
chain: VDAKYAKEADQAAMEIATLPNLTWDQWFAFIAKLRDDPSQSSELLSEAKKLNDSQAPKGAPGGGGSGGGGSGGGGSTSLAEAKEAANAELDSYGVSDFYKRLIDKAKTVEGVEALKDAILAALPGTGGGGSGGGGSGGGGSPRVDAKYAKEADQAAMEIATLPNLTWDQWFAFIAKLRDDPSQSSELLSEAKKLNDSQAPK
**Q.** With B2 as the binder, how does the “IC50 … with HSA” value [2] read?
**A.** 560 pM

B3: Z12059, periplasmic ABD fusion (designed binder)
chain: AQHDEALEVDAKYAKEADDAAYEIAFLPNLTWDQWFAFISKLRDDPSQSSELLSEAKKLNDSQAPKVDYVLAEAKVLANRELDKYGVSDYYKNLINNAKTVEGVKALIDEILAALPYVPG
notes: domain: GA3
**Q.** How did the EC50 [3] turn out when B3 was run?
**A.** 530 pM

B4: Z12211, periplasmic ABD fusion (designed binder)
chain: AQHDEALEVDAKYAKEADEAAVEIADLPNLTWDQWWAFINKLRDDPSQSSELLSEAKKLNDSQAPKVDYVLAEAKVLANRELDKYGVSDYYKNLINNAKTVEGVKALIDEILAALPYVPG
notes: domain: GA3
**Q.** With B4 as the binder, how does the EC50 [3] read?
**A.** 460 pM

B5: Z12081, periplasmic ABD fusion (designed binder)
chain: AQHDEALEVDAKYAKEADDAALEIADLPNLTWDQWWAFISKLRDDPSQSSELLSEAKKLNDSQAPKVDYVLAEAKVLANRELDKYGVSDYYKNLINNAKTVEGVKALIDEILAALPYVPG
notes: domain: GA3
**Q.** How did the EC50 [3] turn out when B5 was run?
**A.** 560 pM

B6: Z12264, periplasmic ABD fusion (designed binder)
chain: AQHDEALEVDAKYAKEADDAAYEIAFLPNLTWDQWWAFIQKLRDDPSQSSELLSEAKKLNDSQAPKVDYVLAEAKVLANRELDKYGVSDYYKNLINNAKTVEGVKALIDEILAALPYVPG
notes: domain: GA3
**Q.** For B6, which EC50 [3] is on record?
**A.** 390 pM

B7: Z12163, periplasmic ABD fusion (designed binder)
chain: AQHDEALEVDAKYAKEADQAAYEIAFLPNLTWDQWFAFINKLRDDPSQSSELLSEAKKLNDSQAPKVDYVLAEAKVLANRELDKYGVSDYYKNLINNAKTVEGVKALIDEILAALPYVPG
notes: domain: GA3
**Q.** Which EC50 [3] does the source give for B7 here?
**A.** 500 pM

B8: Z12060, periplasmic ABD fusion (designed binder)
chain: AQHDEALEVDAKYAKEADAAAVEIAELPNLTWDQWWAFINKLRDDPSQSSELLSEAKKLNDSQAPKVDYVLAEAKVLANRELDKYGVSDYYKNLINNAKTVEGVKALIDEILAALPYVPG
notes: domain: GA3
**Q.** With B8 as the binder, how does the EC50 [3] read?
**A.** 510 pM

B9: Z12285, periplasmic ABD fusion (designed binder)
chain: AQHDEALEVDAKYAKEADNAALEIANLPNLTWDQWWAFITKLRDDPSQSSELLSEAKKLNDSQAPKVDYVLAEAKVLANRELDKYGVSDYYKNLINNAKTVEGVKALIDEILAALPYVPG
notes: domain: GA3
**Q.** For B9, which EC50 [3] is on record?
**A.** 910 pM

B10: Z12212, periplasmic ABD fusion (designed binder)
chain: AQHDEALEVDAKYAKEADDAAVEIALLPNLTWDQWYAFINKLRDDPSQSSELLSEAKKLNDSQAPKVDYVLAEAKVLANRELDKYGVSDYYKNLINNAKTVEGVKALIDEILAALPYVPG
notes: domain: GA3
**Q.** Which EC50 [3] does the source give for B10 here?
**A.** 780 pM

B11: Z12439, periplasmic ABD fusion (designed binder)
chain: AQHDEALEVDAKYAKEADMAAVEIAELPNLTWEQWWAFIGKLRDDPSQSSELLSEAKKLNDSQAPKVDYVLAEAKVLANRELDKYGVSDYYKNLINNAKTVEGVKALIDEILAALPYVPG
notes: domain: GA3
**Q.** With B11 as the binder, how does the EC50 [3] read?
**A.** 610 pM

B12: Z12180, periplasmic ABD fusion (designed binder)
chain: AQHDEALEVDAKYAKEADDAAVEIAALPNLTWDQWWAFIGKLRDDPSQSSELLSEAKKLNDSQAPKVDYVLAEAKVLANRELDKYGVSDYYKNLINNAKTVEGVKALIDEILAALPYVPG
notes: domain: GA3
**Q.** Which EC50 [3] does the source give for B12 here?
**A.** 370 pM

B13: Z12275, periplasmic ABD fusion (designed binder)
chain: AQHDEALEVDAKYAKEADDAAVEIADLPNLTWDQWFAFINKLRDDPSQSSELLSEAKKLNDSQAPKVDYVLAEAKVLANRELDKYGVSDYYKNLINNAKTVEGVKALIDEILAALPYVPG
notes: domain: GA3
**Q.** With B13 as the binder, how does the EC50 [3] read?
**A.** 420 pM

B14: Z12073, periplasmic ABD fusion (designed binder)
chain: AQHDEALEVDAKYAKEADDAAVEIADLPNLTWDQWYAFITKLRDDPSQSSELLSEAKKLNDSQAPKVDYVLAEAKVLANRELDKYGVSDYYKNLINNAKTVEGVKALIDEILAALPYVPG
notes: domain: GA3
**Q.** How did the EC50 [3] turn out when B14 was run?
**A.** 430 pM

B15: Z12115, periplasmic ABD fusion (designed binder)
chain: AQHDEALEVDAKYAKEADDAAYEIAYLPNLTWDQWYAFIQKLRDDPSQSSELLSEAKKLNDSQAPKVDYVLAEAKVLANRELDKYGVSDYYKNLINNAKTVEGVKALIDEILAALPYVPG
notes: domain: GA3
**Q.** How did the EC50 [3] turn out when B15 was run?
**A.** 420 pM

B16: Z12078, periplasmic ABD fusion (designed binder)
chain: AQHDEALEVDAKYAKEADDAAYEIAYLPNLTWDQWFAFITKLRDDPSQSSELLSEAKKLNDSQAPKVDYVLAEAKVLANRELDKYGVSDYYKNLINNAKTVEGVKALIDEILAALPYVPG
notes: domain: GA3
**Q.** For B16, which EC50 [3] is on record?
**A.** 520 pM

B17: Z12256, periplasmic ABD fusion (designed binder)
chain: AQHDEALEVDAKYAKEADDAAVEIADLPNLTWDQWYAFIAKLRDDPSQSSELLSEAKKLNDSQAPKVDYVLAEAKVLANRELDKYGVSDYYKNLINNAKTVEGVKALIDEILAALPYVPG
notes: domain: GA3
**Q.** B17 was tested. Which EC50 [3] did it give?
**A.** 470 pM

B18: ZAZ3269 (designed binder)
chain: AEAKYAKEADDAAVEIADLPNLTWDQWYAFISKLRDDPSQSSELLSEAKKLNDSQAPKVDGSLAEAKEAANAELDSYGVSDFYKRLIDKAKTVEGVEALKDAILAALPGTGGGGSPKAEAKYAKEADDAAVEIADLPNLTWDQWYAFISKLRDDPSQSSELLSEAKKLNDSQAPK
**Q.** How did the “IC50 … with HSA” value [2] turn out when B18 was run?
**A.** 420 pM

B19: ZAZ3235 (designed binder)
chain: VDAKYAKEADQAAMEIATLPNLTWDQWFAFIAKLRDDPSQSSELLSEAKKLNDSQAPKVDGSLAEAKEAANAELDSYGVSDFYKRLIDKAKTVEGVEALKDAILAALPGTGGGGSGGGGSPRVDAKYAKEADQAAMEIATLPNLTWDQWFAFIAKLRDDPSQSSELLSEAKKLNDSQAPK
**Q.** Which “IC50 … with HSA” value [2] does the source give for B19 here?
**A.** 600 pM

B20: ZAZ3221 (designed binder)
chain: VDAKYAKEADDAAVEIASLPNLTWDQWYAFIQKLRDDPSQSSELLSEAKKLNDSQAPKGAPGGGGSGGGGSGGGGSGGGGSTSLAEAKEAANAELDSYGVSDFYKRLIDKAKTVEGVEALKDAILAALPGTGGGGSGGGGSGGGGSGGGGSPRVDAKYAKEADDAAVEIASLPNLTWDQWYAFIQKLRDDPSQSSELLSEAKKLNDSQAPK
**Q.** With B20 as the binder, how does the “IC50 … with HSA” value [2] read?
**A.** 390 pM

B21: Z06455-ABD (designed binder)
chain: MGSSLQVDAKYAKEMDNAQWEIWLLPNLTWAQQHAFIGKLIDDPSQSSELLSEAKKLNDSQAPKVDSSLAEAKEAANAELDSYGVSDFYKRLIDKAKTVEGVEALKDAILAALP
**Q.** With B21 as the binder, how does the “IC50 … with HSA” value [1] read?
**A.** 15000 pM

B22: Z06260-ABD (designed binder)
chain: MGSSLQVDAKYAKEHDYAWFEIWALPNLTWDQATAFIRKLNDDPSQSSELLSEAKKLNDSQAPKVDSSLAEAKEAANAELDSYGVSDFYKRLIDKAKTVEGVEALKDAILAALP
**Q.** With B22 as the binder, how does the “IC50 … with HSA” value [1] read?
**A.** 8000 pM

B23: ZAZ3234 (designed binder)
chain: VDAKYAKEADQAAMEIATLPNLTWDQWFAFIAKLRDDPSQSSELLSEAKKLNDSQAPKVDGSLAEAKEAANAELDSYGVSDFYKRLIDKAKTVEGVEALKDAILAALPGTGGGGSPRVDAKYAKEADQAAMEIATLPNLTWDQWFAFIAKLRDDPSQSSELLSEAKKLNDSQAPK
**Q.** B23 was tested. Which “IC50 … with HSA” value [2] did it give?
**A.** 660 pM

B24: ZAZ3176 (designed binder)
chain: VDAKYAKEADQAAMEIATLPNLTWDQWFAFIAKLRDDPSQSSELLSEAKKLNDSQAPKGAPGGGGSGGGGSTSLAEAKEAANAELDSYGVSDFYKRLIDKAKTVEGVEALKDAILAALPGTGGGGSGGGGSPRVDAKYAKEADQAAMEIATLPNLTWDQWFAFIAKLRDDPSQSSELLSEAKKLNDSQAPK
**Q.** For B24, which “IC50 … with HSA” value [2] is on record?
**A.** 500 pM

B25: ZAZ3270 (designed binder)
chain: AEAKYAKEADDAAVEIADLPNLTWDQWYAFISKLRDDPSQSSELLSEAKKLNDSQAPKASGSLAEAKEAANAELDSYGVSDFYKRLIDKAKTVEGVEALKDAILAALPGTGGGGSAEAKYAKEADDAAVEIADLPNLTWDQWYAFISKLRDDPSQSSELLSEAKKLNDSQAPK
**Q.** For B25, which “IC50 … with HSA” value [2] is on record?
**A.** 410 pM

B26: ZAZ3422 (designed binder)
chain: AEAKYAKEADDAAVEIASLPNLTWAQWYAFIQKLRDDPSQSSELLSEAKKLNDSQAPKASGSLAEAKEAANAELDSYGVSDFYKRLIDKAKTVEGVEALKDAILAALPGTGGGGSAEAKYAKEADDAAVEIASLPNLTWAQWYAFIQKLRDDPSQSSELLSEAKKLNDSQAPK
notes: Z-ABD-Z polypeptide; D25A in both Z14253 moieties of ZAZ3363; also called Z15166-[ASGS]-PP013-[GT-G4S]-Z15166
**Q.** What does the source list for B26?
**A.** IC50, IL-17A induced IL-6 production, NHDF cells; 0 weeks at 40 C [2]: 380 pM; IC50, IL-17A induced IL-6 production, NHDF cells; after 2 weeks at 40 C [2]: 450 pM; IC50, IL-17A induced IL-6 production, NHDF cells; after 4 weeks at 40 C [2]: 420 pM; Kd [4]: 0.0785 pM; koff [4]: 6.08e-07 s⁻¹; kon [4]: 7.8e+06 M⁻¹ s⁻¹

B27: ZAZ3236 (designed binder)
chain: VDAKYAKEADQAAMEIATLPNLTWDQWFAFIAKLRDDPSQSSELLSEAKKLNDSQAPKGAPGGGGSTSLAEAKEAANAELDSYGVSDFYKRLIDKAKTVEGVEALKDAILAALPGTGGGGSPRVDAKYAKEADQAAMEIATLPNLTWDQWFAFIAKLRDDPSQSSELLSEAKKLNDSQAPK
**Q.** B27 was tested. Which “IC50 … with HSA” value [2] did it give?
**A.** 540 pM

B28: ZAZ3237 (designed binder)
chain: VDAKYAKEADQAAMEIATLPNLTWDQWFAFIAKLRDDPSQSSELLSEAKKLNDSQAPKGAPGGGGSTSLAEAKEAANAELDSYGVSDFYKRLIDKAKTVEGVEALKDAILAALPGTGGGGSGGGGSPRVDAKYAKEADQAAMEIATLPNLTWDQWFAFIAKLRDDPSQSSELLSEAKKLNDSQAPK
**Q.** With B28 as the binder, how does the “IC50 … with HSA” value [2] read?
**A.** 490 pM
